Source: the supplement of paper PMC4166925
± gives the standard deviation of the averaged measurements. In all, about 33,000 sequences were measured (“E-score (dimensionless, -0.5 to 0.5)”: median about -0.049, highest 2% from about 0.37 on). The list shows a part of the results.

System: T1, PmTbr T-box DNA-binding domain (GST fusion)
T1 sequence: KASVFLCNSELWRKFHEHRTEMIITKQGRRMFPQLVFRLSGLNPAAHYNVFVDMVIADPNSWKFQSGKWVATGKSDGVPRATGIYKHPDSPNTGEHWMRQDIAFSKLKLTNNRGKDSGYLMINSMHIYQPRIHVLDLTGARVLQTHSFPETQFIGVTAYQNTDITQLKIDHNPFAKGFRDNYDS
Assay: PBM E-score of 8-mer (E-score (dimensionless, -0.5 to 0.5)); Tbr is Tbrain of the sea star Patiria miniata (Pm) or the sea urchin Strongylocentrotus purpuratus (Sp); higher = stronger binding preference; most listed sequences are background and not binding sites
Details: the construct has about 5 more residues each side
Method in brief: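 GST-fused Tbr T-box DNA-binding domains (the whole T-box plus about five flanking residues) were expressed in BL21 E. coli at 20 °C and purified by glutathione affinity chromatography. Universal Agilent oligonucleotide arrays were made double-stranded by primer extension, incubated with 200 nM protein in PBS (pH 7.5), then scanned and quantified. Every ungapped 8-mer was scored from probe intensities. The Universal PBM Analysis Suite gave each word an enrichment E-score, averaged over duplicate arrays.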

Sequence	PBM E-score of 8-mer
AATTTCAC	0.328 ± 0.027
ACTCGTCT	-0.094 ± 0.038
ACATCTTA	0.0796 ± 0.025
AAGCACTC	-0.159 ± 0.058
GCGGAGCA	-0.0103 ± 0.033
CGCATAGC	-0.0328 ± 0.038
ACGAAGAT	-0.123 ± 0.024
ACACTGTC	0.254 ± 0.0087
GAGAATTA	-0.0566 ± 0.036
AGAATCCA	-0.104 ± 0.0065
ACCTCCGG	-0.0697 ± 0.072
AAGATATT	-0.0991 ± 0.056
GTATGTTA	0.0298 ± 0.051
GATTAGTA	-0.0148 ± 0.03
CGACTCGC	0.1856 ± 0.00035
GATTAATA	-0.0328 ± 0.028
GGGGAATA	-0.181 ± 0.046
TAAAACAA	-0.194 ± 0.037
ATAACGAC	0.0976 ± 0.012
ACCAGACC	-0.136 ± 0.013
CCAACGAC	0.0479 ± 0.05
GTCTCAGA	-0.127 ± 0.024
CGATAAAC	0.13 ± 0.045
GTACCGTA	-0.312 ± 0.0072
CAAACGTA	-0.147 ± 0.003

Sequence	PBM E-score of 8-mer
ACTGACCT	-0.201 ± 0.084
GATTGGGC	-0.142 ± 0.038
GGAAAACA	-0.142 ± 0.064
CTCTATCA	0.166 ± 0.044
ATGTTTTG	0.0763 ± 0.032
CAGTACGG	-0.25 ± 0.0095
AGGCTACC	-0.275 ± 0.003
CGCTATAC	0.142 ± 0.0027
GCGTCAGC	0.166 ± 0.0083
GCTTGCCC	-0.245 ± 0.0072
AAATTGCA	-0.0135 ± 0.074
GTCTACGA	-0.127 ± 0.013
AGTTGTCC	-0.145 ± 0.027
ATTGAGTC	0.11 ± 0.014
CGGAACGA	-0.238 ± 0.082
GTCTAACA	0.173 ± 0.084
GCGCGATA	0.337 ± 0.011
AGGACAAA	0.152 ± 0.031
TGCAGAAA	-0.0308 ± 0.095
CATCTATC	-0.196 ± 0.023
TCGGGACA	-0.0831 ± 0.085
AGTAGGTG	0.4125 ± 0.00071
AAACCGCA	-0.0644 ± 0.097
GACCCTGA	0.125 ± 0.04
CACGTTCA	0.1626 ± 0.001

Sequence	PBM E-score of 8-mer
CCCGGTTC	-0.145 ± 0.015
AAACCCGT	0.0862 ± 0.011
CCGGCTTA	-0.182 ± 0.014
GATTCAGA	-0.206 ± 0.0085
CCCTACAG	-0.0807 ± 0.071
ACGCTTCA	0.0342 ± 0.072
ATCTTCAC	0.209 ± 0.046
ACATATGT	0.229 ± 0.029
AGCTCCCC	-0.3 ± 0.072
ACAGCGGC	-0.015 ± 0.0098
CGATCTGA	0.144 ± 0.026
ACGGTGTC	0.26 ± 0.076
CTCTCCAG	-0.171 ± 0.04
GACCGCTC	-0.257 ± 0.034
GGGCCGGA	-0.161 ± 0.012
GGTGCAAA	0.393 ± 0.0071
ACCAGACG	-0.168 ± 0.14
ATACCAGA	-0.307 ± 0.026
AATCAGGC	-0.0653 ± 0.098
GTTAAAGA	-0.117 ± 0.12
CAGTAGCA	0.0969 ± 0.018
ACCCTCCT	0.0385 ± 0.044
GATTGAGC	-0.0167 ± 0.033
ACGTACGA	-0.143 ± 0.083
ATGGCGAG	0.111 ± 0.062

Sequence	PBM E-score of 8-mer
CAGCCGTA	-0.272 ± 0.0054
AGTATGGA	-0.289 ± 0.013
AGCCCGTG	-0.171 ± 0.049
CACGATGA	0.133 ± 0.024
ACGTGTCC	0.0892 ± 0.034
AGTTATCC	-0.205 ± 0.019
TGCGGGAA	-0.102 ± 0.05
CTAGCTGA	0.0629 ± 0.025
AGTAAGAA	-0.229 ± 0.0037
AAGAGAAA	-0.205 ± 0.029
GCTCAACC	-0.238 ± 0.0053
GAAATTGA	-0.0565 ± 0.0088
CGAAAGGA	-0.0387 ± 0.049
AAAGCACG	-0.0186 ± 0.0062
CACCCCCA	0.235 ± 0.012
GCATTCTA	-0.263 ± 0.011
AAGACCTG	-0.0244 ± 0.028
AAAGCGAG	-0.0361 ± 0.052
GCGTGGGA	-0.0996 ± 0.047
CCAAACAC	0.263 ± 0.022
AACCGCTG	0.0537 ± 0.018
AATACCAG	-0.222 ± 0.015
TGTCCTAA	-0.199 ± 0.11
AAATACCA	-0.119 ± 0.062
GAAGCTAC	-0.167 ± 0.019

Sequence	PBM E-score of 8-mer
AACACAAC	0.188 ± 0.048
AAAGCAAT	-0.364 ± 0.055
GGCTTACA	-0.113 ± 0.034
TACGTATA	-0.0845 ± 0.049
AAGGGACA	-0.0677 ± 0.0034
GGATGGCA	-0.161 ± 0.015
AGAGTATC	-0.0617 ± 0.035
GGGGCGAA	-0.0721 ± 0.014
ACTGTGCG	0.102 ± 0.022
ATTGTGTG	0.269 ± 0.0039
ACCTCCGA	0.253 ± 0.033
GCCCTCCA	-0.174 ± 0.048
ATCTACCC	-0.231 ± 0.071
CCATTACG	-0.0993 ± 0.055
CCCACACG	0.0862 ± 0.0074
AGGTTTTG	0.115 ± 0.081
CACCCCCG	0.216 ± 0.014
ACCGGTGA	0.127 ± 0.029
ACAACTCT	0.185 ± 0.013
ACAACTGA	0.172 ± 0.019
AGATCAAC	-0.228 ± 0.076
AGGTACCA	-0.0398 ± 0.018
ATGTTGCG	0.109 ± 0.013
CATACTAG	-0.0501 ± 0.02
ATCTAAGC	-0.151 ± 0.0099

Sequence	PBM E-score of 8-mer
CCTGTATC	-0.0718 ± 0.014
ATCCAACA	0.137 ± 0.0041
GCCGAGTA	-0.0427 ± 0.048
AAGGGAAA	-0.237 ± 0.0069
CCGAAGCG	0.00215 ± 0.00026
ACGAGGCC	-0.193 ± 0.045
ATGGTGTG	0.383 ± 0.0049
GCTTTCAC	0.26 ± 0.011
ACTTCCAC	0.0492 ± 0.063
AACGGGGG	0.0167 ± 0.04
ACGCGAGT	0.0375 ± 0.014
AGATATAG	-0.179 ± 0.022
AGGTCTAG	-0.216 ± 0.049
GGTCGACA	0.266 ± 0.016
CATAGCAG	0.0581 ± 0.06
ACGAGCTC	-0.189 ± 0.081
GATACCAC	-0.0238 ± 0.015
TGTCTGAA	0.182 ± 0.0081
GGGATACC	-0.262 ± 0.064
ATAGTGTA	0.0192 ± 0.0016
CACAAGAA	-0.123 ± 0.0027
AGTTTTCA	-0.00473 ± 0.12
AAGCTTCT	-0.235 ± 0.045
AGGATGGG	-0.294 ± 0.02
AAGCAAAC	-0.0933 ± 0.0052

Sequence	PBM E-score of 8-mer
AGTAACCG	-0.133 ± 0.011
CGTTGGAA	-0.16 ± 0.043
AACATTGC	0.00147 ± 0.078
CCTCCCCA	-0.0174 ± 0.029
AACTCAGC	-0.0823 ± 0.044
CGTAGGGA	-0.146 ± 0.029
CAATGAAA	-0.144 ± 0.016
ACCATTCC	-0.166 ± 0.044
ACGGACAG	-0.0235 ± 0.037
AAAGAACG	0.024 ± 0.12
CTTTGTAA	-0.11 ± 0.028
AGCAAGGG	-0.0741 ± 0.017
GAGCCGGA	-0.323 ± 0.056
AACGTACC	-0.3161 ± 0.0024
CGCACATC	0.298 ± 0.055
CTCTCGTC	0.0265 ± 0.033
AAGGAACA	-0.118 ± 0.0046
AATGGCCG	-0.102 ± 0.016
ATATCGTG	-0.0273 ± 0.033
GAAGTGCC	0.263 ± 0.019
GGGATTAC	-0.237 ± 0.013
ATTCGGCC	-0.0926 ± 0.031
